# Source: publication PMC4336329 (PLoS ONE, 2015)
# About 2,200 (0.71%) of roughly 310,000 compounds showed an effect of 50% or more. The effect is printed as a negative number. Some of the results follow.
# Biological target: human ether-à-go-go-related gene (hERG) potassium channel (human, UniProt Q12809)
# Experiment: primary screen, population patch clamp on CHO cells stably expressing hERG
# Chain of human ether-à-go-go-related gene (hERG) potassium channel (Q12809 whole entry, looked up): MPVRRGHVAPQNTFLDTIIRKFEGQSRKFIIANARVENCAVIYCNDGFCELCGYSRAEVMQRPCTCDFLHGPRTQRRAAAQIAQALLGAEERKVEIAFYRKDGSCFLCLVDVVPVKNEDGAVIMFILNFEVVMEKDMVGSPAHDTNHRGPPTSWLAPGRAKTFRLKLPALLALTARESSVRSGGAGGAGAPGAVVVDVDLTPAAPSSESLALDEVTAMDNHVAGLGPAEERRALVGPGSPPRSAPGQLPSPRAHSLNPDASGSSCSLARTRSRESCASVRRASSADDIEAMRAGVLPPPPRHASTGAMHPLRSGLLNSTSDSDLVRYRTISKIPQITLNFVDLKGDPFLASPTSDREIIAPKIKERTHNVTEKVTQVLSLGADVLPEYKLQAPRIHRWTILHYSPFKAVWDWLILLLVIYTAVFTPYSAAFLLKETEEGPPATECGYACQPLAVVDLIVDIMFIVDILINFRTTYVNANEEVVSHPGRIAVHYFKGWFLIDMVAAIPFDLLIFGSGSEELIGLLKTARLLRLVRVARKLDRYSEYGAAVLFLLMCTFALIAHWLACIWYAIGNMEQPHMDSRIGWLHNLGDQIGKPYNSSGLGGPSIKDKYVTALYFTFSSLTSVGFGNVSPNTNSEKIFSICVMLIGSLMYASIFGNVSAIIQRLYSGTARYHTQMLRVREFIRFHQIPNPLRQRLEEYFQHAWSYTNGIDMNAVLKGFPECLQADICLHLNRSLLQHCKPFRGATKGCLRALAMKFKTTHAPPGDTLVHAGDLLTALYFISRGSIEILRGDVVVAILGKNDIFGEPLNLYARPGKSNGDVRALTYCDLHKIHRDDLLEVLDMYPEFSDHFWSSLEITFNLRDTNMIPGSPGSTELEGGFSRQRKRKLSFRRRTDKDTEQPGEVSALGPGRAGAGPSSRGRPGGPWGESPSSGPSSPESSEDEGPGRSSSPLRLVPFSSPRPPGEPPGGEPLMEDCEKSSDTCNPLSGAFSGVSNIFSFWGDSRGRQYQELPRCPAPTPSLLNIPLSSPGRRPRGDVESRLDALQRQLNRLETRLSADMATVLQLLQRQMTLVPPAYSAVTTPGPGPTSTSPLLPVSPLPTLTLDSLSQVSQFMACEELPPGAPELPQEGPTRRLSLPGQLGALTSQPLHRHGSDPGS
row,Compound,"hERG current change (%, negative = inhibition) at 1uM [%]"
1,CCN(CC)c1ccc(/C=C/c2cccc[n+]2C)c(OC)c1.[I-],-1.37
2,Cc1cc(NC(=O)c2cccs2)ncc1NC(=O)C(C)(C)C,12.4
3,CCc1ccccc1NC(=O)CN(C)C(=O)Cn1ncc(Cl)c(Cl)c1=O,6.43
4,c1ccc(Nc2nc(N3CCCC3)nc(N3CCOCC3)n2)cc1,4.8
5,O=C(c1ccc2c(c1)OCCO2)N1CCN(c2ncc(C(F)(F)F)cc2Cl)CC1,6.27
6,COc1ccc(C(=O)N2CCN(c3ccc(C)c(C)c3)CC2)cc1OC,7.29
7,CC1CCN(Cc2c(C(=O)O)nnn2-c2nonc2N)CC1,-4.2
8,CN(C(=O)c1cc([N+](=O)[O-])ccc1NCc1cccnc1)c1ccccc1,5.16
9,CC(C)CCn1c(SCC(=O)N2CC(=O)Nc3ccccc32)nc2scc(-c3cccs3)c2c1=O,12.7
10,C#CCOCCOCCOCCNc1nc(N2CCN(C(=O)[C@H]([C@@H](C)CC)n3cc([C@@H](N)CO)nn3)CC2)nc(N2CCN(C(=O)[C@H](CCCCN)n3cc([C@@H](N)C(C)CC)nn3)CC2)n1.Cl (stereo partly shown),2.56
11,CCCCC(=O)Nc1nnc(SCC(=O)Nc2ccc(OC)cc2)s1,13.9
12,BrC(/C=C\c1ccccc1)=N/Nc1nc(N2CCOCC2)nc(N2CCOCC2)n1,4.01
13,CCN(CC)C(=O)c1ccc(C(=O)c2ccccc2)cc1,6.39
14,CN(C)/C=N/c1nc2nccc(-c3cccs3)n2n1,18.1
15,CC(=O)Nc1ccc(S(=O)(=O)NCC2CCC(C(=O)NCc3ccccc3)CC2)cc1 (stereo not shown),1.85
16,Cn1c(=O)c2c(nc(OCc3ccc4c(c3)OCO4)n2Cc2ccccc2Cl)n(C)c1=O,6.8
17,CCCN(Cc1cc2cc(C)ccc2[nH]c1=O)C(=O)c1cccc([N+](=O)[O-])c1,-0.504
18,CC(C)(C)OC(=O)NNC(=O)Nc1ccccc1C(F)(F)F,12.3
19,Cc1ccc(N2CCN(S(=O)(=O)c3ccc(C)cc3)CC2)cc1,7.12
20,Cc1[nH]c2ccccc2c1C(=O)C(C)OC(=O)c1ccccc1NCCO (stereo not shown),12.8
21,OCC[C@@H]1C[C@H](O)[C@@H](O)[C@@]2(OCc3ccccc32)O1,12
22,CCOC(=O)C(Cc1ccccc1)NC(=O)Cn1nnc(-c2ccccc2)n1 (stereo not shown),-6.34
23,O=C(O)CSc1ncn[nH]1,-5.94
24,CN1Cc2c(N)cccc2C(c2ccccc2)C1.O=C(O)/C=C\C(=O)O (stereo not shown),2.56
25,COc1ccc(/C=N/N(C)C2=NS(=O)(=O)c3ccccc32)cc1,12.3
26,COc1cc(/C=C2\SC(=S)N(NS(=O)(=O)c3ccccc3)C2=O)cc(OC)c1OC,13
27,COc1cc(OC)cc(N2CC(C)(C)C2=O)c1,5.17
28,CCOc1ccc(OC(=O)c2cccc(S(=O)(=O)N3CCN(C)CC3)c2)cc1,8.46

row,Compound,"hERG current change (%, negative = inhibition) at 1uM [%]"
1,O=C(CN1C(=O)c2cccnc2Oc2ccc(Cl)cc21)NCCCc1ccccc1,4.41
2,COc1ccc(-c2ocnc2C(=O)Nc2ccc(N3CCOCC3)cc2N2CCOCC2)cc1OC,5.8
3,Cc1ccc(C(=O)OCC(=O)NNC(=O)c2ccc([N+](=O)[O-])cc2)o1,14.1
4,COc1ccccc1N1CCN(c2cc(=O)n(-c3ccc(Br)cc3)c(=O)[nH]2)CC1,6.54
5,COc1ccc(C(=O)CCC(=O)Nc2cccc(Cl)c2)cc1,-1.27
6,CCOc1ccc(-c2cnc3n2CCC3)cc1.Cl,-5.39
7,CC1CCCCC1NC(=O)C1CCN(S(=O)(=O)c2cccc3nsnc23)CC1 (stereo not shown),13.6
8,Cc1ccc(C(=O)OCC(=O)N2CCOCC2)c(C)c1,16.1
9,Cc1ccccc1OCCC(=O)OCC(=O)N1CCN(S(=O)(=O)c2ccc(Cl)cc2)CC1,3.31
10,O=C(NCCN1CCOCC1)c1ccc2c(c1)N(Cc1ccc(Cl)cc1)CCS2,6.21
11,CCN1CCCC1CNC(=O)Cn1nc(C)n2c(cc3cc(C)ccc32)c1=O (stereo not shown),-0.326
12,Cc1cccc(NC(=O)c2ccc(N3C(=O)C4C5C=CC(C6CC56)C4C3=O)cc2)c1 (stereo not shown),15.3
13,CCOC(=O)c1cnc2ccccc2c1Nc1ccc2c(c1)OCCO2,-4.82
14,CCOC(=O)c1ccccc1NC1CC(=O)N(c2ccccc2C)C1=O (stereo not shown),6.65
15,O=C(CSc1nccn1Cc1ccccc1)Nc1nccs1,6.09
16,CCCCNC(=O)CC1SC(=NCC)N(CC)C1=O (stereo not shown),11.5
17,O=C(CN1C(=O)c2ccccc2S1(=O)=O)c1ccc(F)cc1,14
18,Oc1ccc(N=Nc2ccc3c(c2)OCCO3)c2cccnc12,7.89
19,C/C(=N\NC(=O)CSCc1ccc(Cl)cc1)c1ccc(NC(=O)c2ccccc2)cc1,15.9
20,CCNS(=O)(=O)c1ccc(CCC(=O)N2CCN(c3cc(Cl)ccc3C)CC2)cc1,12.4
21,CC(C)CC(=O)N1CCN(Cc2ccc3ccccc3c2)CC1,6.91
22,CCn1nnc2c(=O)oc3ccccc3c21,15.5
23,COC(=O)/C=C1\SC(N)=NC1=O,9.93
24,COc1cc(NS(=O)(=O)c2ccc(N=Cc3c(C)[nH]n(-c4ccccc4)c3=O)cc2)nc(OC)n1,3.08
25,O=C(C[n+]1ccccc1)c1ccc(-c2ccccc2)cc1.[Br-],-2.45
26,CCOc1ccc(C(=O)NCC(C)NC(=O)c2ccc(OCC)cc2)cc1 (stereo not shown),22.5
27,Cc1nn(-c2ccc(F)cc2)c2sc(C(=O)O)cc12,9.73
